Data: PubChem BioAssay AID504706 (National Center for Advancing Translational Sciences (NCATS), 2011)
Out of some 320,000 compounds screened, about 200 (0.062%) were called active. This list was built around the results that the source calls inconclusive (neither active nor inactive); the mix of calls is not that of the screen. Calls follow the shape of the dose curve; as a rule, active = well fitted activation curve with a large enough effect; inconclusive = small, poorly fitted or top-dose-only effect; inactive = no such curve, though single readings can be large or run the other way. Potencies of inconclusive entries are left out as doubtful fits.

test: qHTS assay for re-activators of p53 using a Luc reporter; settings: H1299 p53-A138V BP100-luciferase reporter, luminescence, 24 h; series mostly up to 92.2 µM; also: nearly all actives have a fitted effect of over 45% in size
Outline: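 p53-null H1299 cells stably carrying temperature-sensitive p53-A138V and a BP100-luciferase reporter were pinned with compounds (4-point, 1:5 series) and held 24 hrs at 37 deg C. Luminescence was read 10 min after detection reagent.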
Potency is read from the fitted curve at half-maximal effect; tags tell the direction and shape of the fitted curve.

Row | SMILES | Potency
1 | CC(C)(C)c1cc2cccnc2n1Cc1cccc(Cl)c1 | inactive
2 | Cc1ccn2c(C(=O)c3ccc(Cl)cc3)cnc2c1 | inconclusive [activator, partial curve, poor fit]
3 | Cc1ccc(/C(N)=N/OC(=O)c2ccc(F)cc2)cc1 | inconclusive [activator, partial curve, poor fit]
4 | CCc1ccc(/C=N/Nc2ncnc3nc[nH]c23)cc1 | inconclusive [activator, partial curve, poor fit]
5 | CCC(=O)NCCc1nc2cc(NC(=O)Nc3ccccc3)ccc2n1C | inconclusive [activator, full curve, poor fit]
6 | Cc1ccc(SCCNC(=S)Nc2cc(C)ccc2C)cc1 | inactive
7 | COc1ccc(C(=O)CSc2nnc(CNc3nc(-c4ccccc4)cs3)n2C)cc1 | inactive
8 | Cc1nn(-c2ccccc2)c(N)c1N=Nc1ccccc1 | inconclusive [activator, partial curve, poor fit]
9 | Cc1cccnc1NC(=O)Nc1ccc(F)cc1 | inconclusive [activator, partial curve, poor fit]
10 | O=C(Nc1ccc(Oc2ccc(NC(=O)Nc3ccc([N+](=O)[O-])cc3)cc2)cc1)Nc1ccc([N+](=O)[O-])cc1 | inactive
11 | O=C(CS(=O)(=O)c1ccccc1)c1cc2ccccc2oc1=O | inconclusive [activator, partial curve, poor fit]
12 | CCOC(=O)Nc1ccc(C(=O)c2ccncc2)cc1 | inconclusive [activator, single point]
13 | Cc1ccoc1C(=O)Nc1ccc2ccccc2c1 | inconclusive [activator, full curve, poor fit]
14 | c1ccc(OCc2nc(-c3cccs3)no2)cc1 | inconclusive [activator, partial curve, poor fit]
15 | Cc1cc(C(=O)NC2=NCCS2)cs1 | inconclusive [activator, partial curve, poor fit]
16 | Cc1nc2ccccn2c1C(=O)N/N=C/c1ccc2c(c1)OCO2 | inconclusive [activator, partial curve, poor fit]
17 | CCCn1c(C)cc(C(=O)CN2C(=O)c3cccc(N)c3C2=O)c1C | inconclusive [activator, partial curve, poor fit]
18 | CC(=O)Oc1ccc(C(=O)Cc2ccc3ccccc3n2)c(O)c1C | inconclusive [activator, full curve, poor fit]
19 | CCOC(=O)N1CCN(C(=O)c2nc3ccccc3s2)CC1 | inconclusive [activator, partial curve, poor fit]
20 | CCN(CC)C(=O)CSc1nc2c(sc(=S)n2-c2ccccc2)c(=O)n1Cc1ccco1 | inactive
21 | CCc1cc(C(=O)c2ccc(OC)cc2)c(NC(=O)CN2CCCCC2)s1 | inactive
22 | CCC1CCCCN1C(=O)CSc1nnc(-c2cccs2)o1 (configuration not stated) | inconclusive [activator, full curve, poor fit]
23 | CC(=O)Oc1ccc2cc(-c3nc4ccccc4n3C)c(=O)oc2c1 | inconclusive [activator, partial curve, poor fit]

Row | SMILES | Potency
24 | C/C(=N/NC(=O)c1ccccc1)C(=O)O | inactive
25 | COc1ccc2nc(NC(=O)Nc3ccccc3)sc2c1 | inconclusive [activator, partial curve, poor fit]
26 | c1ccc(NC2=Nc3cccc4cccc2c34)cc1 | inactive
27 | Cc1nn(-c2ccccc2Cl)c(Cl)c1/C=N/Nc1cccc(C(=O)O)c1 | inconclusive [activator, full curve, poor fit]
28 | COC(=O)c1ccc(N)c(N=CC2=C(O)CC(C)(C)CC2=O)c1 | inconclusive [activator, partial curve]
29 | CN(C)c1ccc(S(=O)(=O)NCC(=O)N2CCN(c3ccccc3)CC2)cc1[N+](=O)[O-] | inactive
30 | CCC(=O)N1CCN(c2ccc(NC(=O)c3cc4ccccc4o3)cc2Cl)CC1 | inactive
31 | Fc1ccc2cnc(C3=CCCCC3)cc2c1 | inconclusive [activator, partial curve, poor fit]
32 | COC(=O)Nc1nnc(-c2ccncc2)s1 | inconclusive [activator, partial curve, poor fit]
33 | Cc1ccc(C(=O)Nc2ccccc2C(=O)NC(CC(=O)O)C(=O)O)cc1 (configuration not stated) | inconclusive [activator, single point]
34 | C=CCn1c(C)cc(C(=O)COc2ccc(C)nc2[N+](=O)[O-])c1C | inconclusive [activator, partial curve, poor fit]
35 | Oc1ccc(N=Nc2ccc3c(c2)OCCO3)c2cccnc12 | inconclusive [activator, single point]
36 | c1ccc(Cc2nnc3sc(-c4ccc5c(c4)OCCO5)nn23)cc1 | inconclusive [activator, partial curve, poor fit]
37 | COc1cc(C=O)ccc1OCc1ccccc1Br | inconclusive [activator, partial curve, poor fit]
38 | Cc1ccccc1C(=O)Nc1ccccc1C(=O)N/N=C\c1ccco1 | inactive
39 | Cc1cccc(Nc2nnc(SCC3CCCCO3)s2)c1 (configuration not stated) | inconclusive [activator, partial curve, poor fit]
40 | CCC1c2ccc(C)n2CCN1C(=O)Nc1ccccc1C(=O)OC (configuration not stated) | inconclusive [activator, single point]
41 | Cc1sc(NC(=O)C2C3CCC(O3)C2C(=O)O)nc1-c1ccc(CC(C)C)cc1 (configuration not stated) | inconclusive [activator, partial curve, poor fit]
42 | CCn1c(SCC(=O)N/N=C/C=C/c2ccco2)nc2ccccc21 | inactive
43 | Cn1c(=S)n(/N=C/c2cccs2)c2ccccc21 | inconclusive [activator, partial curve, poor fit]
44 | Cc1ccccc1/C(N)=N/OC(=O)c1cccs1 | inconclusive [activator, partial curve, poor fit]
45 | Nn1c(COc2ccc(Cl)cc2)nc2ccccc2c1=O | inconclusive [activator, partial curve, poor fit]
46 | CCOc1cc(/C=C2\SC(N3CCCC(C)C3)=NC2=O)ccc1O (configuration not stated) | inconclusive [activator, partial curve, poor fit]

Row | SMILES | Potency
47 | O=C(c1ccc(C23CC4CC(CC(C4)C2)C3)o1)N1CCOCC1 | inconclusive [activator, single point]
48 | O=C(NNC(=O)c1ccc(Cl)c([N+](=O)[O-])c1)c1ccncc1 | inconclusive [activator, partial curve, poor fit]
49 | Cc1ccccc1-c1nc2cc(Cl)ccc2o1 | inconclusive [activator, partial curve, poor fit]
50 | Cc1ccc(C(=O)COC(=O)COc2ccccc2[N+](=O)[O-])s1 | inactive
51 | Cc1ccc(-c2onc3ccc(C=O)cc23)cc1 | inconclusive [activator, partial curve, poor fit]
52 | CCOCC(=O)Nc1nc2ccc(OC)cc2s1 | inconclusive [activator, full curve, poor fit]
53 | CCNC(=S)N(CCc1c(C)[nH]c2ccc(Cl)cc12)Cc1cccnc1 | inconclusive [activator, single point]
54 | CCOC(=O)N1C/C(=C\c2ccccc2)C(=O)/C(=C/c2ccccc2)C1 | inconclusive [activator, partial curve, poor fit]
55 | CN1CCN(S(=O)(=O)c2cccc(C(=O)NCCC3=CCCCC3)c2)CC1 | inactive
56 | Brc1ccc(-c2nc(-c3cccnc3)no2)o1 | inconclusive [activator, partial curve, poor fit]
57 | Cc1[nH]c2c(C)cccc2c(=O)c1CN1CCCCCC1 | inactive
58 | COc1ccc(NC(=O)CN(C)C(=O)CNC(=O)c2ccc3ccccc3c2)cc1 | inconclusive [activator, full curve, poor fit]
59 | Cc1ccc(S(=O)(=O)NCC(c2ccc3c(c2)OCO3)N2CCN(c3ccccc3)CC2)cc1 (configuration not stated) | inactive
60 | O=C(CSc1ncnc2sccc12)N1CCCCC1 | inconclusive [activator, partial curve, poor fit]
61 | COc1cc(/C=c2\sc3n(c2=O)CCCN=3)ccc1O | inconclusive [activator, partial curve, poor fit]
62 | CC1=NN(c2ccc(Cl)c(C(=O)O)c2)C(=O)C1 | inactive
63 | COCCN1CCN(C(=O)c2cc(COc3ccc(F)c(F)c3)on2)CC1 | inconclusive [activator, partial curve, poor fit]
64 | CSc1ccc(CNc2ccccn2)cc1 | inconclusive [activator, partial curve, poor fit]
65 | CCOC(=O)c1ccc(NC(=O)c2ccccc2[N+](=O)[O-])cc1 | inconclusive [activator, partial curve, poor fit]
66 | CCOC(=O)N1CCN(C(=O)c2c(-c3ccccc3)noc2C)CC1 | inconclusive [activator, single point]
67 | Cc1noc(C)c1C(=O)Nc1nnc(-c2ccccc2)s1 | inconclusive [activator, partial curve, poor fit]
